Values joined by “and” are separate entries in the source; they are usually repeats but may differ in a detail not shown here. Identical values can stand only once. Among all 420,000 compounds or so, about 64,000 (15%) were called active. Inconclusive results, whose numbers are uncertain, are shown with a selection of clear calls. Calls follow the shape of the dose curve; as a rule, active = well fitted inhibition curve with a large enough effect; inconclusive = small, poorly fitted or top-dose-only effect; inactive = flat fitted curve, though single readings scatter. Potencies beside an inconclusive call are fits to weak or partial responses and may not hold up. Where a structure was tested more than once in an assay, its records may differ in their call.
Test: qHTS for Inhibitors of human tyrosyl-DNA phosphodiesterase 1 (TDP1): qHTS in cells in absence of CPT; also: nearly all actives have a fitted effect of over 55% in size
Conditions: DT40 Tdp1-/- hTDP1 cells, no CPT, ATP luminescence, 48 h; activity change, negative = growth inhibition: at 46.2 µM (top of the series)
Method in brief: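 Luminescent ATP content (CellTiter-Glo) served as the growth readout. Knockout chicken DT40 cells expressing human TDP1 were exposed to compounds without camptothecin for a minimum 48 hr at 37 °C.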
% is scaled to controls: 0 for no effect and ±100 for the full control effect; potency is read from the fitted curve at half-maximal effect; tags tell the direction and shape of the fitted curve.

Question: For O=C(C[n+]1cccc(CNC(=O)c2ccc(OC(F)F)cc2)c1)Nc1ccc(SC(F)F)cc1, which Potency is on record?
Answer: The Potency was inconclusive: 16.4 µM [inhibitor, partial curve].

Question: With CCc1cc2c(SCC(=O)c3ccc(C)cc3)ncnc2s1 as the compound, how does the Potency read?
Answer: Its Potency is inconclusive: 16.4 µM [inhibitor, single point].

Question: Which Potency does the source give for Cc1cc(C)c(NC(=O)Cc2csc(C)n2)c(Cl)c1 here?
Answer: The Potency was inconclusive: 23.1 µM [inhibitor, single point].

Question: For CC1CC/C(=C\c2ccc3c(c2)OCO3)C(=O)/C1=C/c1ccc2c(c1)OCO2 (stereo not given), which Potency is on record?
Answer: The Potency was inconclusive: 20.6 µM [inhibitor, single point].

Question: With Cc1ccc(NC(=O)CN2C(=O)NC3(CCCc4ccccc43)C2=O)c(C)c1 (stereo not given) as the compound, how does the Potency read?
Answer: Its Potency is inconclusive: 20.6 µM [inhibitor, partial curve].

Question: For CC(C)c1ccc(S(=O)(=O)N2CCC(C(=O)N3CCC3)CC2)cc1, which Potency is on record?
Answer: The Potency was inconclusive: 16.4 µM [inhibitor, single point].

Question: Which Potency does the source give for Cc1cc(C)n2nc(CCCO)nc2n1 here?
Answer: The Potency was “inactive”.

Question: Which Potency does the source give for O=C(CCn1c(=O)[nH]c2ccccc2c1=O)N1CCN(c2ccc(Cl)cc2)CC1 here?
Answer: Its Potency is “inactive”.

Question: For O=C(Nc1ccc(-c2cn3ccccc3n2)cc1)c1cccs1, which Potency is on record?
Answer: The Potency was active: 14.6 µM.

Question: For CC1CCCC(NC(=O)c2ccc3c(c2)NC(=O)CS3)C1C (stereo not given), which Potency is on record?
Answer: Its Potency is inconclusive: 18.4 µM [inhibitor, single point].

Question: Which Potency does the source give for CCOc1ccc(N2C(=O)CC(N(Cc3ccco3)C(=O)CC)C2=O)cc1 (stereo not given) here?
Answer: Its Potency is “inactive”.

Question: With COc1cc(OC)c(OC)cc1CN1CCN(Cc2cccn2C)CC1 as the compound, how does the Potency read?
Answer: The Potency was inconclusive: 18.4 µM [inhibitor, single point].

Question: For O=C(CSc1nccn1-c1ccc(F)cc1)Nc1ccc2c(c1)OCO2, which activity change, negative = growth inhibition is on record?
Answer: The activity change, negative = growth inhibition was inconclusive: -30.5% [inhibitor].

Question: Which Potency does the source give for CCN1C(=O)c2ccccc2Sc2ccc(C(=O)NCCCN(CC(C)C)CC(C)C)cc21 here?
Answer: Its Potency is active: 10.3 µM and active: 16.4 µM.

Question: With COc1ccc(NC(=S)NCc2ccc(F)cc2)cc1 as the compound, how does the Potency read?
Answer: The Potency was inconclusive: 20.6 µM [inhibitor, partial curve, poor fit].

Question: With CC(=O)Nc1cc([N+](=O)[O-])cc(NC(C)=O)c1NC(C)=O as the compound, how does the Potency read?
Answer: Its Potency is inconclusive: 3.98 µM [inhibitor, partial curve].

Question: With Cc1ccc(S(=O)(=O)N2C[C@H]3C(=O)C[C@@H](c4ccccc4)N(S(=O)(=O)c4ccc(C)cc4)[C@H]3C[C@H]2c2cccc(Cl)c2)cc1 as the compound, how does the Potency read?
Answer: Its Potency is inconclusive: 25.9 µM [inhibitor, single point].

Question: With CC1COc2c(N3CCN(C)CC3)c(F)cc3c(=O)c(C(=O)O)cn1c23 (stereo not given) as the compound, how does the Potency read?
Answer: The Potency was “inactive and active: 13 µM”.

Question: For CCCCNC(=S)N(C)/N=C/c1ccc(OCC(=O)Nc2c(C)cc(C)cc2C)c(OC)c1, which Potency is on record?
Answer: Its Potency is active: 8.2 µM.

Question: For CCOc1ccccc1NC(=O)c1nn(-c2ccc(C)cc2)c(=O)n(C)c1=O, which Potency is on record?
Answer: The Potency was “inactive”.

Question: Which Potency does the source give for CC1CCCC(C(=O)O)N1C(=O)CCS (stereo not given) here?
Answer: The Potency was “inactive”.

Question: For COc1ccccc1CNc1ccc(-c2nc(-c3cccnc3)no2)cc1[N+](=O)[O-], which Potency is on record?
Answer: Its Potency is inconclusive: 4.11 µM [inhibitor, full curve, poor fit].

Question: Which Potency does the source give for CC(=O)c1cccc(-n2nnnc2SCC(=O)Nc2cccc(NC(=O)c3ccco3)c2)c1 here?
Answer: Its Potency is inconclusive: 18.4 µM [inhibitor, single point].

Question: With Cc1ccc(C(=O)Nc2ccc(-c3cn4cccnc4n3)cc2)cc1C as the compound, how does the Potency read?
Answer: Its Potency is inconclusive: 20.6 µM [inhibitor, single point].

Question: For COC(=O)c1c(-c2cccs2)csc1NC(=O)COc1ccc(C(C)(C)C)cc1, which Potency is on record?
Answer: The Potency was active: 20.6 µM.

Question: For CC(C)C(NC(=O)c1ccccc1F)C(=O)NCC(c1ccco1)N1CCCCC1 (stereo not given), which Potency is on record?
Answer: The Potency was inconclusive: 32.6 µM [inhibitor, single point].

Question: With COC(=O)c1ccc(OC(=O)CCc2cc(OC)c(OC)c(OC)c2)cc1 as the compound, how does the Potency read?
Answer: The Potency was “inactive”.

Question: For Cc1cc(NC(=O)CN2CCOCC2)n(-c2nc3ccccc3s2)n1, which Potency is on record?
Answer: Its Potency is active: 20.6 µM.

Question: Which Potency does the source give for CS(=O)(=O)c1ccc(Cl)c(NC(=O)CSc2nnc(C3CC3)n2C2CC2)c1 here?
Answer: The Potency was “inactive”.

Question: For CCOC(=O)c1c(NC(=O)Nc2cccc(Cl)c2)sc(C)c1C, which Potency is on record?
Answer: The Potency was inconclusive: 25.9 µM [inhibitor, single point].

Question: With CN(C)c1ccc(C(=O)N2CCCC(Cn3cc(C(=O)N4CCCC4)nn3)C2)cc1 (stereo not given) as the compound, how does the Potency read?
Answer: Its Potency is “inactive”.

Question: Which Potency does the source give for CCCCN(C)C(=O)Cn1ncc2c3ccccc3n(CCC)c2c1=O here?
Answer: The Potency was inconclusive: 29.1 µM [inhibitor, single point].

Question: Which Potency does the source give for Cc1cccc(/C=C2\CS/C(=C\c3cccc(C)c3)C2=O)c1 here?
Answer: The Potency was “inactive”.

Question: Which Potency does the source give for CCOC(=O)N1CCN(C(=O)CSc2ccc(Cl)cc2)CC1 here?
Answer: Its Potency is “inactive”.

Question: Which Potency does the source give for O=C(CSc1nc2ccccc2c(=O)n1Cc1ccco1)c1ccccc1 here?
Answer: The Potency was active: 20.6 µM.

Question: For COc1cccc(NC(=O)CN2C(=O)c3cccnc3Oc3ccc(Cl)cc32)c1, which Potency is on record?
Answer: Its Potency is “inactive and inconclusive: 29.1 µM [inhibitor, single point]”.

Question: For CC(O)(c1cccnc1)c1nc(-c2ccc3c(c2)OCO3)cs1 (stereo not given), which Potency is on record?
Answer: The Potency was inconclusive: 20.6 µM [inhibitor, partial curve].

Question: For COc1ccc2c(CC(=O)NC3CCCc4ccccc43)coc2c1 (stereo not given), which activity change, negative = growth inhibition is on record?
Answer: Its activity change, negative = growth inhibition is inconclusive: -32.6% [inhibitor].

Question: With O=C(NCC1CCN(Cc2cccc(Cl)c2)CC1)Nc1cc(Cl)ccc1Cl as the compound, how does the Potency read?
Answer: Its Potency is active: 13 µM.

Question: Which Potency does the source give for Cc1noc(C)c1C(=O)N1CCCC(N2CCN(c3cccc(C(F)(F)F)c3)CC2)C1 (stereo not given) here?
Answer: Its Potency is “inactive”.

Question: With C/C(NC(=O)c1cccc(F)c1)=C1/C(=O)C[C@@H]2[C@H]1C2(C)C as the compound, how does the Potency read?
Answer: The Potency was inconclusive: 29.1 µM [inhibitor, single point].

Question: With CCc1ccc(NC(=O)/C(C#N)=C/c2ccncc2)cc1 as the compound, how does the Potency read?
Answer: The Potency was inconclusive: 29.1 µM [inhibitor, single point].

Question: With COCc1c(C(=O)NCC(c2ccco2)N2CCCC2)oc2ccccc12 (stereo not given) as the compound, how does the Potency read?
Answer: Its Potency is inconclusive: 25.9 µM [inhibitor, single point].

Question: For Cc1ccc2nc(N3C(=O)C(O)=C(C(=O)c4ccco4)C3c3cccs3)sc2c1 (stereo not given), which Potency is on record?
Answer: The Potency was inconclusive: 29.1 µM [inhibitor, single point].

Question: For COc1cccc(NC(=S)N(CCCN2CCCC(C)C2)Cc2cccs2)c1 (stereo not given), which Potency is on record?
Answer: The Potency was inconclusive: 23.1 µM [inhibitor, single point].
